Experimental data taken from PubChem BioAssay (NCI).
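These data come from cells grown in 96-well plates and exposed to compound for 48 hours at five concentrations. The concentration for 50% growth inhibition is given as GI50.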 A number of entries come with more than one value. The other results are left out here. There may be further records. For some assays here: The tests behind the records often covered other concentration ranges, which the source does not state; some values may only mark the edge of a range.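 At the TGI there is no net growth.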 For some assays here: The records of an entry are repeats across runs, samples, wells, individuals or studies. A tag in brackets gives the origin of a value. A, B and so on number the origins entry by entry.

Key:
Assay in all cases: NCI tumour cell line growth inhibition, 48 h
[1] = test system: BT-549 breast
[2] = test system: MALME-3M melanoma
[3] = test system: MOLT-4 leukemia
[4] = test system: NCI-H23 lung
[5] = test system: OVCAR-8 ovarian
[6] = test system: RPMI-8226 leukemia
[7] = test system: SN12C renal
[8] = test system: SR leukemia
[9] = test system: LXFL 529 NSCLC
[10] = test system: M14 melanoma
[11] = test system: SF-295 CNS
[12] = test system: SK-MEL-5 melanoma
[13] = test system: SNB-19 CNS
[14] = test system: SNB-78 CNS
[15] = test system: 786-0 renal
[16] = test system: ACHN renal
[17] = test system: CCRF-CEM leukemia
[18] = test system: EKVX NSCLC
[19] = test system: HCT-116 colon
[20] = test system: HOP-62 NSCLC
[21] = test system: HOP-92 NSCLC
[22] = test system: MCF7 breast
[23] = test system: NCI-H226 lung
[24] = test system: NCI-H522 lung
[25] = test system: NCI/ADR-RES ovarian
[26] = test system: OVCAR-4 ovarian
[27] = test system: OVCAR-5 ovarian
[28] = test system: SF-539 CNS
[29] = test system: SK-OV-3 ovarian
[30] = test system: HL-60(TB) leukemia
[31] = test system: SK-MEL-28 melanoma
[32] = test system: UACC-62 melanoma

Q: With `COc1ccc(/C=C\c2cc(OC)c(OC)c(OC)c2)cc1OC(=O)C(N)CCC(=O)O` (stereo unspecified) as the compound, how does the GI50 [1] read?
A: 0.136 nM [1 test] and 48.7 nM [mean of 2 tests]

Q: What about the TGI [2] of the same compound?
A: 60.6 nM and > 54.8 µM

Q: What about the TGI [3] of the same compound?
A: 9.78 nM, 31.5 nM, 35 µM

Q: What about the GI50 [4] of the same compound?
A: 2.33 nM [1 test] and 0.209 nM [mean of 2 tests]

Q: And the TGI [5]?
A: 61 µM [1 test] and 29.2 nM [mean of 3 tests]

Q: What about the TGI [6] of the same compound?
A: 75 nM and 35.8 µM

Q: And the GI50 [7]?
A: 6.58 nM [1 test] and 0.566 nM [mean of 3 tests]

Q: And the TGI [8]?
A: 6.34 nM, 9.4 nM, > 100 µM

Q: Which results are given for `COc1cc2c(c(OC)c1OC)-c1ccc(SC)c(=O)cc1[C@@H](NC(=O)c1ccc(OC(C)=O)cc1)CC2`?
A: TGI [9]: 92.1 nM and 35.7 µM; TGI [10]: 71.9 nM and 31.5 µM; TGI [2]: 82.6 nM and 64.3 µM; TGI [11]: 57.3 nM and 66.2 µM; TGI [12]: 54.1 nM and 14.7 µM; TGI [13]: 51.4 nM and > 100 µM; TGI [14]: 43.3 nM and > 100 µM

Q: Which results are given for `c1ccc(C(=NNc2nc3ccccc3o2)c2ccccn2)nc1`?
A: TGI [15]: 123 nM [sample A] and 3.25 µM [sample B]; TGI [16]: 1.73 µM [sample A] and > 34.3 µM [sample B]; TGI [1]: 3.98 µM [sample A] and 41.4 µM [sample B]; TGI [17]: 62.9 nM [sample A] and > 100 µM [sample B]; TGI [18]: < 29.9 nM [sample A] and > 35.9 µM [sample B]; TGI [19]: 212 nM [sample A] and 16.6 µM [sample B]; TGI [20]: 286 nM [sample A] and > 35.8 µM [sample B]; TGI [21]: 68 nM [sample A] and 23.7 µM [sample B]; TGI [10]: 225 nM [sample A] and 2.52 µM [sample B]; TGI [2]: 229 nM [sample A] and 5.6 µM [sample B]; TGI [22]: 43.4 nM [sample A] and 28 µM [sample B]; TGI [23]: 186 nM [sample A] and 2.88 µM [sample B]; TGI [24]: 1.4 µM [sample A] and > 64 µM [sample B]; TGI [25]: 63.8 nM [sample A] and > 27.7 µM [sample B]; TGI [26]: 78.6 nM [sample A] and 8.09 µM [sample B]; TGI [27]: 611 nM [sample A] and > 53.6 µM [sample B]; TGI [5]: 920 nM [sample A] and > 100 µM [sample B]; TGI [6]: 178 nM [sample A] and 28.3 µM [sample B]; TGI [28]: 348 nM [sample A] and 6.45 µM [sample B]; TGI [29]: 156 nM [sample A] and 12.5 µM [sample B]; TGI [8]: 301 nM [sample A] and > 37.5 µM [sample B]

Q: With `COC1/C=C\C=C(/C)C(=O)Nc2cc3nc4ccc(Br)cc4oc-3c(c2=O)CC(C)CC(OC)C(O)C(C)/C=C(\C)C1OC(N)=O` (stereo unspecified) as the compound, how does the TGI [30] read?
A: 1.92 nM and 1.31 µM

Q: And the GI50 [4]?
A: 1.44 nM [1 test] and 52.8 nM [mean of 3 tests]

Q: What about the TGI [4] of the same compound?
A: 6.28 nM [1 test] and 11.4 µM [mean of 3 tests]

Q: And the TGI [31]?
A: 2.96 nM and 14.8 µM

Q: And the TGI [32]?
A: 6.03 nM and 7.91 µM
